# The other results are listed elsewhere or left out.
# Key:
# Experiment in all cases: glycan array binding signal (z-score within array); higher = stronger binding
# Conditions in all cases: glycan notation: IUPAC condensed, linker removed
# [1] = molecular target: Gal(b1-4)GlcNAc(b1-3)Gal(b1-3)GlcNAc
# In short: (§1)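 Glycan array binding is given as a within-array Z-score, which can be read as non-binding when negative. The arrays, 3228 of them, came from the Consortium for Functional Glycomics database and were retained only where the protein sequence was available. Z-scores were averaged across arrays of the same protein sequence at different concentrations or buffers and across linkers.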
# [2] = molecular target: Gal(b1-4)GlcNAc(b1-3)Gal(b1-4)Glc
# In short: as §1
# [3] = molecular target: Gal(b1-4)GlcNAc(b1-3)Gal(b1-4)GlcNAc
# In short: as §1
# [4] = molecular target: Gal(b1-4)GlcNAc(b1-3)Gal(b1-4)GlcNAc(b1-2)Man(a1-3)[Gal(b1-4)GlcNAc(b1-3)Gal(b1-4)GlcNAc(b1-2)Man(a1-6)]Man(b1-4)GlcNAc(b1-4)GlcNAc
# In short: as §1
# [5] = molecular target: Gal(b1-4)GlcNAc(b1-3)Gal(b1-4)GlcNAc(b1-2)Man(a1-3)[Gal(b1-4)GlcNAc(b1-3)Gal(b1-4)GlcNAc(b1-2)Man(a1-6)]Man(b1-4)GlcNAc(b1-4)[Fuc(a1-6)]GlcNAc
# In short: as §1
# [6] = molecular target: Gal(b1-4)GlcNAc(b1-3)Gal(b1-4)GlcNAc(b1-2)[Gal(b1-4)GlcNAc(b1-3)Gal(b1-4)GlcNAc(b1-6)]Man(a1-6)[Gal(b1-4)GlcNAc(b1-3)Gal(b1-4)GlcNAc(b1-2)Man(a1-3)]Man(b1-4)GlcNAc(b1-4)GlcNAc
# In short: as §1
# [7] = molecular target: Gal(b1-4)GlcNAc(b1-3)Gal(b1-4)GlcNAc(b1-2)[Gal(b1-4)GlcNAc(b1-3)Gal(b1-4)GlcNAc(b1-6)]Man(a1-6)[Gal(b1-4)GlcNAc(b1-3)Gal(b1-4)GlcNAc(b1-2)Man(a1-3)]Man(b1-4)GlcNAc(b1-4)[Fuc(a1-6)]GlcNAc
# In short: as §1
# [8] = molecular target: Gal(b1-4)GlcNAc(b1-3)Gal(b1-4)GlcNAc(b1-3)Gal(b1-4)GlcNAc
# In short: as §1
# [9] = molecular target: Gal(b1-4)GlcNAc(b1-3)Gal(b1-4)GlcNAc(b1-3)Gal(b1-4)GlcNAc(b1-2)Man(a1-3)[Gal(b1-4)GlcNAc(b1-3)Gal(b1-4)GlcNAc(b1-3)Gal(b1-4)GlcNAc(b1-2)Man(a1-6)]Man(b1-4)GlcNAc(b1-4)GlcNAc
# In short: as §1
# [10] = molecular target: Gal(b1-4)GlcNAc(b1-3)Gal(b1-4)GlcNAc(b1-3)Gal(b1-4)GlcNAc(b1-2)Man(a1-3)[Gal(b1-4)GlcNAc(b1-3)Gal(b1-4)GlcNAc(b1-3)Gal(b1-4)GlcNAc(b1-2)Man(a1-6)]Man(b1-4)GlcNAc(b1-4)[Fuc(a1-6)]GlcNAc
# In short: as §1
# [11] = molecular target: Gal(b1-4)GlcNAc(b1-3)Gal(b1-4)GlcNAc(b1-3)Gal(b1-4)GlcNAc(b1-2)[Gal(b1-4)GlcNAc(b1-3)Gal(b1-4)GlcNAc(b1-3)Gal(b1-4)GlcNAc(b1-6)]Man(a1-6)[Gal(b1-4)GlcNAc(b1-3)Gal(b1-4)GlcNAc(b1-3)Gal(b1-4)GlcNAc(b1-2)Man(a1-3)]Man(b1-4)GlcNAc(b1-4)[Fuc(a1-6)]GlcNAc
# In short: as §1
# [12] = molecular target: Gal(b1-4)GlcNAc(b1-3)Gal(b1-4)GlcNAc(b1-3)Gal(b1-4)GlcNAc(b1-3)Gal(b1-4)GlcNAc(b1-2)Man(a1-3)[Gal(b1-4)GlcNAc(b1-3)Gal(b1-4)GlcNAc(b1-3)Gal(b1-4)GlcNAc(b1-3)Gal(b1-4)GlcNAc(b1-2)Man(a1-6)]Man(b1-4)GlcNAc(b1-4)GlcNAc
# In short: as §1
# [13] = molecular target: Gal(b1-4)GlcNAc(b1-3)Gal(b1-4)GlcNAc(b1-3)Gal(b1-4)GlcNAc(b1-3)Gal(b1-4)GlcNAc(b1-2)Man(a1-3)[Gal(b1-4)GlcNAc(b1-3)Gal(b1-4)GlcNAc(b1-3)Gal(b1-4)GlcNAc(b1-3)Gal(b1-4)GlcNAc(b1-2)Man(a1-6)]Man(b1-4)GlcNAc(b1-4)[Fuc(a1-6)]GlcNAc
# In short: as §1
# [14] = molecular target: Gal(b1-4)GlcNAc(b1-3)Gal(b1-4)GlcNAc(b1-3)Gal(b1-4)GlcNAc(b1-3)Gal(b1-4)GlcNAc(b1-2)[Gal(b1-4)GlcNAc(b1-3)Gal(b1-4)GlcNAc(b1-3)Gal(b1-4)GlcNAc(b1-3)Gal(b1-4)GlcNAc(b1-6)]Man(a1-6)[Gal(b1-4)GlcNAc(b1-3)Gal(b1-4)GlcNAc(b1-3)Gal(b1-4)GlcNAc(b1-3)Gal(b1-4)GlcNAc(b1-2)Man(a1-3)]Man(b1-4)GlcNAc(b1-4)[Fuc(a1-6)]GlcNAc
# In short: as §1
# [15] = molecular target: Gal(b1-4)GlcNAc(b1-3)Gal(b1-4)GlcNAc(b1-3)Gal(b1-4)GlcNAc(b1-3)Gal(b1-4)GlcNAc(b1-3)Gal(b1-4)GlcNAc(b1-2)Man(a1-3)[Gal(b1-4)GlcNAc(b1-3)Gal(b1-4)GlcNAc(b1-3)Gal(b1-4)GlcNAc(b1-3)Gal(b1-4)GlcNAc(b1-3)Gal(b1-4)GlcNAc(b1-2)Man(a1-6)]Man(b1-4)GlcNAc(b1-4)GlcNAc
# In short: as §1
# [16] = molecular target: Gal(b1-4)GlcNAc(b1-3)Gal(b1-4)GlcNAc(b1-3)Gal(b1-4)GlcNAc(b1-3)Gal(b1-4)GlcNAc(b1-3)Gal(b1-4)GlcNAc(b1-2)Man(a1-3)[Gal(b1-4)GlcNAc(b1-3)Gal(b1-4)GlcNAc(b1-3)Gal(b1-4)GlcNAc(b1-3)Gal(b1-4)GlcNAc(b1-3)Gal(b1-4)GlcNAc(b1-2)Man(a1-6)]Man(b1-4)GlcNAc(b1-4)[Fuc(a1-6)]GlcNAc
# In short: as §1
# [17] = molecular target: Gal(b1-4)GlcNAc(b1-3)Gal(b1-4)GlcNAc(b1-3)Gal(b1-4)GlcNAc(b1-3)Gal(b1-4)GlcNAc(b1-3)Gal(b1-4)GlcNAc(b1-2)[Gal(b1-4)GlcNAc(b1-3)Gal(b1-4)GlcNAc(b1-3)Gal(b1-4)GlcNAc(b1-3)Gal(b1-4)GlcNAc(b1-3)Gal(b1-4)GlcNAc(b1-6)]Man(a1-6)[Gal(b1-4)GlcNAc(b1-3)Gal(b1-4)GlcNAc(b1-3)Gal(b1-4)GlcNAc(b1-3)Gal(b1-4)GlcNAc(b1-3)Gal(b1-4)GlcNAc(b1-2)Man(a1-3)]Man(b1-4)GlcNAc(b1-4)[Fuc(a1-6)]GlcNAc
# In short: as §1
# [18] = molecular target: Gal(b1-4)GlcNAc(b1-3)Gal(b1-4)GlcNAc(b1-3)Gal(b1-4)GlcNAc(b1-3)Gal(b1-4)GlcNAc(b1-3)Gal(b1-4)GlcNAc(b1-3)Gal(b1-4)GlcNAc(b1-2)Man(a1-3)[Gal(b1-4)GlcNAc(b1-3)Gal(b1-4)GlcNAc(b1-3)Gal(b1-4)GlcNAc(b1-3)Gal(b1-4)GlcNAc(b1-3)Gal(b1-4)GlcNAc(b1-3)Gal(b1-4)GlcNAc(b1-2)Man(a1-6)]Man(b1-4)GlcNAc(b1-4)GlcNAc
# In short: as §1
# [19] = molecular target: Gal(b1-4)GlcNAc(b1-3)Gal(b1-4)GlcNAc(b1-3)GalNAc
# In short: as §1
binder,measurement,setting,value
"AT5G01260(PC)(40) (Arabidopsis thaliana), Q9LFB0 (protein) MIGIGRTLTSSSPSKIILEDLPPGIYRYGTEIFTSVPRKTFHHIKFLRLDSAQSSRILKPVPLRSSSIKDSQVNVEDEEIEASNKTVRVRFQLRKECVFGEHFFIVGDDPVFGGLWDPETALPLNWSDGNVWTVDLDLPVGRLVEFKLLLKAQTGEILWQPGPNRALETWETNKTIRICEDWDNADLQMMIEEDFVPYTNISSIGSEDEDEVLGSVQQNSSVVAVENAGYVSDESAQNSSFSIQSEKTMEPSNGALTAREVIKEAMFTEEESPVLVPGLIPLSDLDNEQVEVINEGKAETFPEVDKKQEPKAERNKKAKVKAISLFEKSEQEAVKSVEQRQYNAVEEEQQRLETEPLGTPDVLFENDIQWGRRTLYKLLSNFRLF",glycan array binding signal (z-score),[1],-0.621
same,glycan array binding signal (z-score),[2],-0.271
same,glycan array binding signal (z-score),[3],0.255
same,glycan array binding signal (z-score),[4],0.568
same,glycan array binding signal (z-score),[5],-0.167
same,glycan array binding signal (z-score),[6],-0.214
same,glycan array binding signal (z-score),[7],-0.426
same,glycan array binding signal (z-score),[8],-0.139
same,glycan array binding signal (z-score),[9],-0.064
same,glycan array binding signal (z-score),[10],0.725
same,glycan array binding signal (z-score),[11],0.662
same,glycan array binding signal (z-score),[12],-0.315
same,glycan array binding signal (z-score),[13],-0.075
same,glycan array binding signal (z-score),[14],-0.1
same,glycan array binding signal (z-score),[15],-0.397
same,glycan array binding signal (z-score),[16],-0.581
same,glycan array binding signal (z-score),[17],0.89
same,glycan array binding signal (z-score),[18],-0.264
same,glycan array binding signal (z-score),[19],0.383

# — the supplement of paper PMC8728848
